The values below come from the supplement of paper PMC12067230.

The data scatter; read single values as rough.
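Also: [psi-pin-] Saccharomyces cerevisiae expressing SupN fusions, induced by 100 µM Cu2SO4, selected 7 d at 30 °C without adenine and uracil, scored by deep sequencing of output versus input.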

The nature of the first series: amyloid nucleation score relative to library mode (yeast Sup35 reporter selection) (log enrichment difference); higher = more amyloid nucleation; sequences are the first 22 residues of the Bri2 peptide extended by up to 12 random residues. Particulars: random library (experiment): 1;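 active = nucleation score significantly above 0 at FDR 0.05; inactive = not significantly above 0 or absent from output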. Here is the method:
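Random C-terminal extensions of the 22-aa Bri2 peptide by 12 NNK codons; premature stops give shorter extensions. Peptides were fused to the Sup35 nucleation domain in S. cerevisiae [psi-pin-] and selected on -ADE-URA plates for 7 d at 30 °C. The nucleation score is log(output/input), centred to the mode of each of 3 independent libraries (1 input, 3 technical output replicates), with duplicates merged. Sequences absent from the output ('random_non_nuc') were imputed with the library mode value, so they are given as censored (<). Nucleators are scores significantly >0 at FDR 0.05.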
Take EASNCFAIRHFENKFAVETLICCLRRFCAWLHVK: the amyloid nucleation score result is “inactive”.

As for EASNCFAIRHFENKFAVETLICCLRTAWVTVAHR, the amyloid nucleation score was determined as 7.1.

Turning to EASNCFAIRHFENKFAVETLICCLRVTLRYDCCC, the amyloid nucleation score entry is “inactive”.

Take EASNCFAIRHFENKFAVETLICCLSFDDSCCWYA: the amyloid nucleation score is 7.97.

Sequence EASNCFAIRHFENKFAVETLICCLSFGPGRDIYV had an amyloid nucleation score of 8.29.

Consider EASNCFAIRHFENKFAVETLICCLSGILAPVTGA, for which the amyloid nucleation score amounted to 6.24.

For EASNCFAIRHFENKFAVETLICCLSGNVWGVYYS, the amyloid nucleation score result is “inactive”.

EASNCFAIRHFENKFAVETLICCLSHHLGTSSCR: the amyloid nucleation score result is “inactive”.

EASNCFAIRHFENKFAVETLICCLSVNRASIPGW had an amyloid nucleation score of 6.1.

With EASNCFAIRHFENKFAVETLICCLTMACPPRLAV, the amyloid nucleation score entry is “inactive”.

Regarding EASNCFAIRHFENKFAVETLICCLTYLRWSGALI, the amyloid nucleation score result was “inactive”.

Turning to EASNCFAIRHFENKFAVETLICCLVCEEALPGR, the amyloid nucleation score came out at 6.06.

Consider EASNCFAIRHFENKFAVETLICCLVGI, for which the amyloid nucleation score came to 4.43.

As to EASNCFAIRHFENKFAVETLICCLVLYLWDDFTW, the amyloid nucleation score was -0.163.

Consider EASNCFAIRHFENKFAVETLICCLVMRYLLSTDQ, for which the amyloid nucleation score result is “inactive”.

For EASNCFAIRHFENKFAVETLICCLVRTDSRWLKC, the amyloid nucleation score turned out to be 2.41.

With EASNCFAIRHFENKFAVETLICCLYCTCVDKFGY, the amyloid nucleation score was found to be 5.44.

Turning to EASNCFAIRHFENKFAVETLICCLYDVFLSRKVC, the amyloid nucleation score was 0.693.

The sequence EASNCFAIRHFENKFAVETLICCLYMSVPGFSLS showed an amyloid nucleation score of 3.55.

For EASNCFAIRHFENKFAVETLICCLYSVELCKFRA, the amyloid nucleation score was determined as 5.95.

Still in this series, the particulars now being: random library (experiment): 2.
In the case of EASNCFAIRHFENKFAVETLICCLRMSLVVCQSR, the amyloid nucleation score result was “inactive”.

Consider EASNCFAIRHFENKFAVETLICCLRRMWYRSRGC, for which the amyloid nucleation score result was “inactive”.

As to EASNCFAIRHFENKFAVETLICCLRVCYDNARVV, the amyloid nucleation score result was “inactive”.

In the case of EASNCFAIRHFENKFAVETLICCLSKERVVVIVG, the amyloid nucleation score entry is “inactive”.

EASNCFAIRHFENKFAVETLICCLTFLKKPWFIK: the amyloid nucleation score was -0.788.

On to EASNCFAIRHFENKFAVETLICCLTIIVGMYPRS, for which the amyloid nucleation score result is “inactive”.

In the case of EASNCFAIRHFENKFAVETLICCLTL, the amyloid nucleation score was 7.73.

On to EASNCFAIRHFENKFAVETLICCLVENRRNWCIA, for which the amyloid nucleation score was 5.59.

With EASNCFAIRHFENKFAVETLICCLVGQRSRSLRC, the amyloid nucleation score result is “inactive”.

As for EASNCFAIRHFENKFAVETLICCLVNRYWVVFRR, the amyloid nucleation score result is “inactive”.

In the case of EASNCFAIRHFENKFAVETLICCLVSIIGWSSVL, the amyloid nucleation score result was “inactive”.

EASNCFAIRHFENKFAVETLICCLVTYSCVYE: the amyloid nucleation score is -0.0198.

Take EASNCFAIRHFENKFAVETLICCLWIGCLSSMRR: the amyloid nucleation score is 3.79.

Still in this series, the particulars now being: random library (experiment): 3.
Regarding EASNCFAIRHFENKFAVETLICCLRTTSKRCWRR, the amyloid nucleation score entry was “inactive”.

Regarding EASNCFAIRHFENKFAVETLICCLRVGRYRICLR, the amyloid nucleation score entry is “inactive”.

Regarding EASNCFAIRHFENKFAVETLICCLVDEIGVYV, the amyloid nucleation score was determined as 5.06.

As for EASNCFAIRHFENKFAVETLICCLVTSERDLPIA, the amyloid nucleation score is 7.98.

EASNCFAIRHFENKFAVETLICCLWVGSEAATSW displayed an amyloid nucleation score of 8.14.

Take EASNCFAIRHFENKFAVETLICCLYCKYLKWCFL: the amyloid nucleation score result was “inactive”.

In turn, EASNCFAIRHFENKFAVETLICCLYFGRLEVVGV returned an amyloid nucleation score of 7.25.

EASNCFAIRHFENKFAVETLICCLYRDMYVRNFR: the amyloid nucleation score entry was “inactive”.
